# The campaign covered roughly 310,000 compounds. About 14,000 (4.5%) showed an effect of 50% or more. Effects have a minus sign here. Some of the results follow.
# Biological target: human ether-à-go-go-related gene (hERG) potassium channel (human, UniProt Q12809)
# Assay: primary screen, population patch clamp on CHO cells stably expressing hERG
# 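Note: peak tail current of the secondary pulse compared with the same well before compound.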
# human ether-à-go-go-related gene (hERG) potassium channel, sequence (Q12809 whole entry, looked up): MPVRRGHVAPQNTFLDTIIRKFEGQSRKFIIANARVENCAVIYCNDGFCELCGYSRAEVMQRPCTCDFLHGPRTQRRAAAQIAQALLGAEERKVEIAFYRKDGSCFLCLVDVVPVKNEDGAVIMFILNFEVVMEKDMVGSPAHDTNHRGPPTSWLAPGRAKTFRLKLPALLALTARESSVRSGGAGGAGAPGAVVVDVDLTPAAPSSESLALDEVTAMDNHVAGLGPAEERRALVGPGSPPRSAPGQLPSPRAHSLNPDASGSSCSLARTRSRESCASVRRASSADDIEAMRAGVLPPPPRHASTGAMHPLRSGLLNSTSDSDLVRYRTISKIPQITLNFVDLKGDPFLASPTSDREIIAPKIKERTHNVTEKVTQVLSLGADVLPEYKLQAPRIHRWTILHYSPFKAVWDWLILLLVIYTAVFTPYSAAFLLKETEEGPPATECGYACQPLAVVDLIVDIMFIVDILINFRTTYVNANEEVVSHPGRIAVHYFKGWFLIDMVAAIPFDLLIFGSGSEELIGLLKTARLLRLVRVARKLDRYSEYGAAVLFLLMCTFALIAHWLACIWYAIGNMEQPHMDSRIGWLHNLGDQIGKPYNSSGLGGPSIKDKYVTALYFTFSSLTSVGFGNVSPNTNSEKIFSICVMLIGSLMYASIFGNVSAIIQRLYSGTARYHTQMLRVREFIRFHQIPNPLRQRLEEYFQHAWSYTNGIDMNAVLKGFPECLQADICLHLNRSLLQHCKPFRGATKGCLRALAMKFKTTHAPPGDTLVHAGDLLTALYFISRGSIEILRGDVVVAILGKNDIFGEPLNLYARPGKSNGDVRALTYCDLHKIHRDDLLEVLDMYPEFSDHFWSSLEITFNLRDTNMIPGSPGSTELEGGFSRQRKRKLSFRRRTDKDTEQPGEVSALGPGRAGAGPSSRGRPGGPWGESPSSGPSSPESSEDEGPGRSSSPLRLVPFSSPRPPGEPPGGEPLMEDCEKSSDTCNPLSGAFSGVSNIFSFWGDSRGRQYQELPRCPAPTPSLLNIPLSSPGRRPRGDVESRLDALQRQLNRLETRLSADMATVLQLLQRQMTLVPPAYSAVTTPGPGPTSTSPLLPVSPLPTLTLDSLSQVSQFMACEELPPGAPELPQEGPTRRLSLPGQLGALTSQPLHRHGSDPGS
row,Structure (SMILES),"hERG current change (%, negative = inhibition) at 10uM"
1,COc1ccc(NC(=O)c2ccc(=O)[nH]c2)cc1S(=O)(=O)N1CCCCC1,-0.587%
2,COCCNC(=O)/C(=C/c1ccccc1Cl)c1ccccc1,-0.406%
3,O=C1c2ccccc2C(=O)N1CCc1nc2ccccc2c(=O)n1CCCn1ccnc1,-62.5%
4,Cc1sc2nc(C(C)C)oc(=O)c2c1C,18%
5,COc1ccccc1CNC(=O)CCNC(=O)Cn1ccc2ccccc2c1=O,7.4%
6,Cc1ccc(N2C(=S)SC3CS(=O)(=O)CC32)cc1 (stereo not shown),-0.491%
7,Cc1nc2c3c(sc2c(=O)[nH]1)NC(=O)CC3c1ccccc1Cl (stereo not shown),0.707%
8,CCOC(=O)c1c(C)[nH]c(C(=O)OCC(=O)c2ccccc2)c1C,-2%
9,Cc1ccc(NC(=O)NNS(=O)(=O)c2ccc(Br)cc2)cc1,19.6%
10,COc1ccccc1-n1c(SCC(=O)Nc2cccc(S(N)(=O)=O)c2)nc2ccccc2c1=O,8.61%
11,CCN(CC)CC.CCn1c(=S)sc2c(=O)n(-c3ccccc3)c(=S)[nH]c21,23.4%
12,N=C1c2ccccc2CN1c1ccc(F)c([N+](=O)[O-])c1,-22%
13,CC(=O)Nc1ccc(NS(=O)(=O)c2cc(-c3n[nH]c(=O)c4ccccc34)ccc2C)cc1,6.61%
14,CSCSC1=C(C#N)C(c2ccc(Cl)cc2)C(C(C)=O)=C(C)N1 (stereo not shown),-23.5%
15,CCC1CCCCN1C(=O)c1ccc(OC2CCN(C(=O)CCOC)CC2)cc1 (stereo not shown),11.9%
16,CNC(=O)Oc1cccc2ccccc12,13.1%
17,COc1ccccc1-n1c(=O)c2c3c(sc2n2c(SC(C)C)nnc12)CCC3,-4.22%
18,Cc1cc(OCCCCCN2CCCC2)ccc1Cl.O=C(O)C(=O)O,-77.2%
19,COc1ccc(CCNC(=O)C(=O)NCC2CCCO2)cc1 (stereo not shown),-0.535%
20,CCCCCCNC(=O)c1cc(-c2ccco2)nc2ccccc12,-11.5%
21,Cc1ccc(Nc2c([N+](=O)[O-])cc(C(=O)N3CC(=O)Nc4ccccc43)cc2[N+](=O)[O-])c(C)c1,15.2%
22,Cc1c(C(=O)Nc2c(C)n(C)n(-c3ccccc3)c2=O)oc2ccc(Cl)cc12,-51.3%
23,Nc1[nH]n(-c2ccccc2)c(=O)c1N=Nc1ccccc1,-6.53%
24,CCc1ccccc1NC(=O)N1CCCc2ccccc21,12.9%
25,Cc1nn(-c2ccccc2)c(Cl)c1C(=O)NCC(=O)O,24.5%

# From publication PMC4336329 (PLoS ONE, 2015)
